In PMC4336329 (PLoS ONE, 2015):
Out of some 310,000 compounds screened, about 14,000 (4.5%) showed an effect of 50% or more. Effects have a minus sign here. Some of the results follow.
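Also: peak tail current of the secondary pulse compared with the same well before compound.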

These molecules were tested against human ether-à-go-go-related gene (hERG) potassium channel (human, UniProt Q12809) (assay: primary screen, population patch clamp on CHO cells stably expressing hERG).
Chain of human ether-à-go-go-related gene (hERG) potassium channel (Q12809 whole entry, looked up): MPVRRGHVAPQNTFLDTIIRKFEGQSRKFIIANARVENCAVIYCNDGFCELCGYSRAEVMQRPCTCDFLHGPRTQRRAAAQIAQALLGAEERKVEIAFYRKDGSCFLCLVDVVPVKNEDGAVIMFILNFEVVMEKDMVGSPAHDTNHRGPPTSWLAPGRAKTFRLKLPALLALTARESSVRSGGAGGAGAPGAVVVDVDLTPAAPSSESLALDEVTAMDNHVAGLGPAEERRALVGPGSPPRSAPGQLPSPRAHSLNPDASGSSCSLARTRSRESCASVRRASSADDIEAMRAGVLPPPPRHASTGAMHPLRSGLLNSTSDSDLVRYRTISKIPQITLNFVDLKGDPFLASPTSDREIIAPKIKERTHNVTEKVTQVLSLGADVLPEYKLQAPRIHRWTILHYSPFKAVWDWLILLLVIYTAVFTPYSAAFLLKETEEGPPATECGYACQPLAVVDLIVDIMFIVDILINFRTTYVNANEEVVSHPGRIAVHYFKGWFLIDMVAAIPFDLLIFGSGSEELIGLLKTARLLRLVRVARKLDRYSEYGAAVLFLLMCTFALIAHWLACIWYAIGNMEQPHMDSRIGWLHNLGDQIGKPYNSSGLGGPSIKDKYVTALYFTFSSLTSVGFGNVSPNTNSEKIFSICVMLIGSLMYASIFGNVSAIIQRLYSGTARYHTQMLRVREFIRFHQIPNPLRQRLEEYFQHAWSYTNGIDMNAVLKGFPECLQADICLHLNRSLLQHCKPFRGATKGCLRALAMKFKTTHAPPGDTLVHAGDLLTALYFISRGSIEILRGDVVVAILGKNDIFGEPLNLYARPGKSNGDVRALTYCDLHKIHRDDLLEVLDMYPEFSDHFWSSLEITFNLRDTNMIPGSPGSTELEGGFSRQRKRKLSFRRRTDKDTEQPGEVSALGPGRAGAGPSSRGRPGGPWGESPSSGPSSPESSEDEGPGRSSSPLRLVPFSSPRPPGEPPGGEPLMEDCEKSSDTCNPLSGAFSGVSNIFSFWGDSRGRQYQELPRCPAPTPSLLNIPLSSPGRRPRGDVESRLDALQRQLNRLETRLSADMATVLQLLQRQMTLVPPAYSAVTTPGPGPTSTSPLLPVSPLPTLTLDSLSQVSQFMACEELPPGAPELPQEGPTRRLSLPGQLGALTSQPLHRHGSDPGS
In the case of `CCN(C(=O)C(C)N1C(=O)/C(=C/c2ccco2)SC1=S)C1CCS(=O)(=O)C1` (centres unmarked), the “hERG current change (%, negative = inhibition) at 10uM” value was -19.3%. With `C#CCOCCOCCOCCNc1nc(N2CCN(C(=O)[C@H](CCC(=O)O)n3cc(C(N)Cc4ccc(O)cc4)nn3)CC2)nc(N2CCN(C(=O)[C@H](CCC(=O)O)n3cc(C(N)CC(C)C)nn3)CC2)n1.Cl` (some centres unmarked) the “hERG current change (%, negative = inhibition) at 10uM” value was 10.3%. `CCOc1ccc(-n2c(C)c(C(C)=O)c3cc(O)ccc32)cc1` was tested, and the “hERG current change (%, negative = inhibition) at 10uM” value was 4.4%. `CCCn1c(SCC(=O)NC2CCC(C)CC2)n[nH]c1=O` (centres unmarked) was tested, and the “hERG current change (%, negative = inhibition) at 10uM” value was 19.6%. With `Cc1ccc(S(=O)(=O)N2CCC(C(=O)NC3CCCCC3C)CC2)cc1` (centres unmarked) the “hERG current change (%, negative = inhibition) at 10uM” value was 5.96%. With `CC(Sc1ccccc1)C(=O)NCC(c1ccco1)N1CCCCC1` (centres unmarked) the “hERG current change (%, negative = inhibition) at 10uM” value was -9.36%. In the case of `Nc1[nH]ncc1-c1ccc(F)cc1`, the “hERG current change (%, negative = inhibition) at 10uM” value was 22.1%. `Cc1cccc(OCc2nnc(SCC(=O)Nc3ncc(C)s3)o2)c1` was tested, and the “hERG current change (%, negative = inhibition) at 10uM” value was 31.5%. For `O=C(NNCC(O)COc1ccccc1)c1ccccc1` (centres unmarked), the “hERG current change (%, negative = inhibition) at 10uM” value was 1.06%. In the case of `COc1ccccc1CNC(=O)[C@H](C)NC(=O)C1CCN(C(=O)[C@@H]2CCCN2C(=O)OC(C)(C)C)CC1`, the “hERG current change (%, negative = inhibition) at 10uM” value was 1.52%. For `Cc1[nH]c2c(Cl)cccc2c1CCNC(=O)C1CCCCC1C(=O)OCC(F)(F)F` (centres unmarked), the “hERG current change (%, negative = inhibition) at 10uM” value was -29.7%. `N#CCSc1ccsc1C(=O)Nc1ccc(F)cc1` was tested, and the “hERG current change (%, negative = inhibition) at 10uM” value was -13.5%. `CCCOC(=O)c1ccc(O)c(OC)c1` was tested, and the “hERG current change (%, negative = inhibition) at 10uM” value was 29.1%. In the case of `O=S(=O)(c1ccccc1)c1nc(NC2CC2)sc1Cl`, the “hERG current change (%, negative = inhibition) at 10uM” value was 7.78%. For `O=C(NCCc1ccc(C(F)(F)F)cc1)c1ccc(Cl)nc1`, the “hERG current change (%, negative = inhibition) at 10uM” value was -4.62%. `COc1ccc(S(=O)(=O)N(C)CC(=O)Nc2ccccc2OC)cc1` was tested, and the “hERG current change (%, negative = inhibition) at 10uM” value was -15.8%. `Cn1c(SCC(=O)N2CCN(Cc3ccccc3)CC2)nnc1-c1ccncc1` was tested, and the “hERG current change (%, negative = inhibition) at 10uM” value was -2.39%. With `O=C(COC(=O)CSc1ccc(F)cc1)NNC(=O)c1ccc([N+](=O)[O-])cc1` the “hERG current change (%, negative = inhibition) at 10uM” value was -30.2%. With `COc1ccc(/C=C(\C#N)C(=O)OCC(=O)Nc2ccc(C(C)(C)C)cc2)cc1` the “hERG current change (%, negative = inhibition) at 10uM” value was 0.425%. In the case of `Br.CC1CCN(CC(=O)c2ccccc2Cl)CC1`, the “hERG current change (%, negative = inhibition) at 10uM” value was 12.3%. With `CCN(CC)CCCN1C(=O)C(O)=C(C(=O)c2ccco2)C1c1ccc(OC(C)C)cc1` (centres unmarked) the “hERG current change (%, negative = inhibition) at 10uM” value was 1.11%. In the case of `COC(=O)c1sccc1NC(=S)OC`, the “hERG current change (%, negative = inhibition) at 10uM” value was 7.92%. `COc1ccc2[nH]c(C(=O)N3CCN(C)CC3)c(C)c2c1` was tested, and the “hERG current change (%, negative = inhibition) at 10uM” value was 10.4%. For `COc1ccc(NC(=O)CN2CCN(CC(=O)Nc3ccc(F)cc3)CC2)c(OC)c1`, the “hERG current change (%, negative = inhibition) at 10uM” value was -80.4%. In the case of `COc1ccc(C2CC(=O)c3cnc(N4CCc5ccccc54)nc3C2)c(OC)c1` (centres unmarked), the “hERG current change (%, negative = inhibition) at 10uM” value was 10.8%. For `Oc1ccc(/C=N/Nc2ncc(Br)cn2)c(O)c1`, the “hERG current change (%, negative = inhibition) at 10uM” value was 25%. `CCOc1ccc(/C=N/NC(=O)CN2CCCCC2)cc1OCC` was tested, and the “hERG current change (%, negative = inhibition) at 10uM” value was 11%. In the case of `CSc1nc(C)cc(OCCO)n1`, the “hERG current change (%, negative = inhibition) at 10uM” value was 13%. In the case of `COc1ccc(-c2nc(CSCC(=O)NCC3CCCO3)c(C)o2)cc1OC` (centres unmarked), the “hERG current change (%, negative = inhibition) at 10uM” value was -8.6%. With `COc1ccccc1CCC(=O)OC(C)C(=O)Nc1c(C)n(C)n(-c2ccccc2)c1=O` (centres unmarked) the “hERG current change (%, negative = inhibition) at 10uM” value was 10.7%. In the case of `COC(=O)c1ccc(C)c(NC(=O)c2ccc(CN3CCc4ccccc4C3)cc2)c1`, the “hERG current change (%, negative = inhibition) at 10uM” value was 6.57%. With `COc1cc(NC(=O)c2onc(C)c2Cl)cc(OC)c1OC` the “hERG current change (%, negative = inhibition) at 10uM” value was 11.3%. With `O=S(=O)(Nc1ccc(Oc2ncccn2)c(Cl)c1)c1ccc(F)cc1` the “hERG current change (%, negative = inhibition) at 10uM” value was 2.03%. With `CCOC(=O)c1ccc(NC(=O)CSc2nc(N)c(NC(=O)c3ccc(Br)o3)c(=O)[nH]2)cc1` the “hERG current change (%, negative = inhibition) at 10uM” value was 15.2%. `CCc1ccccc1NC(=S)N1CCCCCC1` was tested, and the “hERG current change (%, negative = inhibition) at 10uM” value was 15.7%. For `Cc1ccc2nc(-c3ccc(NC(=O)CN4C(=O)NC(C)(c5ccc(OC(F)F)cc5)C4=O)cc3)sc2c1` (centres unmarked), the “hERG current change (%, negative = inhibition) at 10uM” value was 12.4%. For `O=C(NCCc1ccccc1Cl)C1CCC(=O)N(Cc2ccc(Cl)cc2)C1` (centres unmarked), the “hERG current change (%, negative = inhibition) at 10uM” value was -56.8%. In the case of `CC(=O)NS(=O)(=O)c1ccc(NC(=O)C(Sc2ccccc2)c2ccccc2)cc1` (centres unmarked), the “hERG current change (%, negative = inhibition) at 10uM” value was 8.87%. With `COc1ccccc1C1c2ccc3ccccc3c2Oc2ncn(CCN(C)C)c(=N)c21` (centres unmarked) the “hERG current change (%, negative = inhibition) at 10uM” value was -61.8%. `CCOC(=O)c1cn(Cc2ccccc2)c(C(=O)OC(C)(C)C)c1O` was tested, and the “hERG current change (%, negative = inhibition) at 10uM” value was -0.516%. For `O=S(=O)(Cc1ccccc1)NCc1cccnc1`, the “hERG current change (%, negative = inhibition) at 10uM” value was -13%. For `O=C(CNC(=O)c1ccccc1F)OCc1csc(-c2ccccc2)n1`, the “hERG current change (%, negative = inhibition) at 10uM” value was 14.6%. For `COc1cc(C(=O)O/N=C2/C=C(C)C(=O)C=C2C)cc(OC)c1OC`, the “hERG current change (%, negative = inhibition) at 10uM” value was 3.71%. `NS(=O)(=O)c1ccc(N=Nc2c(=O)[nH]n3c(=O)c4c([nH]c23)CCCC4)cc1` was tested, and the “hERG current change (%, negative = inhibition) at 10uM” value was 12.7%.
